Measurements: article PMC4336329 (PLoS ONE, 2015)
Screen size: about 310,000 compounds; about 2,200 (0.71%) showed an effect of 50% or more. Effects have a minus sign here. This is one part of the list.

Each compound was assayed against human ether-à-go-go-related gene (hERG) potassium channel (human, UniProt Q12809) (assay: primary screen, population patch clamp on CHO cells stably expressing hERG).
Sequence of human ether-à-go-go-related gene (hERG) potassium channel (Q12809 whole entry, looked up): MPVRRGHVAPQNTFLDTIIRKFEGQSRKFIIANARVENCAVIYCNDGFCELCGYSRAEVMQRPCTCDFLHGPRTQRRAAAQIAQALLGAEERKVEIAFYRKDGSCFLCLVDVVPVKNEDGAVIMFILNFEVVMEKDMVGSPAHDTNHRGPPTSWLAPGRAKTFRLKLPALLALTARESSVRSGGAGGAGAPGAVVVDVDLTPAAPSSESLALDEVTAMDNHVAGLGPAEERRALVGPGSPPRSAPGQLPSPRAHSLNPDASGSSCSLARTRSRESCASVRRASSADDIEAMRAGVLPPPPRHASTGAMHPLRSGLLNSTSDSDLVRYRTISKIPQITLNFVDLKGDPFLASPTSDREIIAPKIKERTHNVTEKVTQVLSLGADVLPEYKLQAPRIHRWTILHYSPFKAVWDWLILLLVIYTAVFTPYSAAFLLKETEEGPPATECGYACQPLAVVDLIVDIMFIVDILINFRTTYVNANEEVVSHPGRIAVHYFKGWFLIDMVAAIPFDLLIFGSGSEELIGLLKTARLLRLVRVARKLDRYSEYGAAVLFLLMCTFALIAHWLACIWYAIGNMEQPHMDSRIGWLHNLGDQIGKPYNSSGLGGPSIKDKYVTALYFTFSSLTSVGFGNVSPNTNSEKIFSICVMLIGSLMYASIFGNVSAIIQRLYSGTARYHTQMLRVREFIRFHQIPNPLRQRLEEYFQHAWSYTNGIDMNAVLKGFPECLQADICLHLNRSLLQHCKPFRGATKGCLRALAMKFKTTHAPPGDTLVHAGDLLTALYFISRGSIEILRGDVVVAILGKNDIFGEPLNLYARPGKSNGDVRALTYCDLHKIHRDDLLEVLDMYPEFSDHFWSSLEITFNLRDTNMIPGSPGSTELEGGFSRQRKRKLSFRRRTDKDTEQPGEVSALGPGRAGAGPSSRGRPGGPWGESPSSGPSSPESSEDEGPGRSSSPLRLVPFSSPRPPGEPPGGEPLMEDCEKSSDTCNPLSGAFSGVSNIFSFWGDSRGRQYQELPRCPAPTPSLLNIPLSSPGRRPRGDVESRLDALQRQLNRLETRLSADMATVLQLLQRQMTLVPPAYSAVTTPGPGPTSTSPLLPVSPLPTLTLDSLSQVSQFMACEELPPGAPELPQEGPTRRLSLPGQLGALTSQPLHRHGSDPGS
For `O=C(Nc1nc(-c2ccco2)c(-c2ccco2)s1)c1cnccn1`, the “hERG current change (%, negative = inhibition) at 1uM” value was 7.77%.
In the case of `Nc1nc(SCc2nc3scc(-c4cccs4)c3c(=O)[nH]2)n[nH]1`, the “hERG current change (%, negative = inhibition) at 1uM” value is reported as 18.2%.
In the case of `Nc1[nH]c(N=NC(=O)c2ccccc2)c2ccccc12`, the “hERG current change (%, negative = inhibition) at 1uM” value is reported as 10.1%.
With `C#Cc1ccc([C@@H]2C=C(C(=O)OCC=C)O[C@H](OCc3ccc(CO)cc3)C2)cc1` the “hERG current change (%, negative = inhibition) at 1uM” value was 20.2%.
For `COc1ccc(NC(=O)c2coc3ccccc23)cc1OC`, the “hERG current change (%, negative = inhibition) at 1uM” value was 7.73%.
For `CN(c1ccccc1)S(=O)(=O)c1ccc(C(=O)OCC(=O)NCc2ccco2)cc1`, the “hERG current change (%, negative = inhibition) at 1uM” value was 7.86%.
In the case of `Cc1c(NC(=S)/C=C2\N(C)c3ccccc3C2(C)C)c(=O)n(-c2ccccc2)n1C`, the “hERG current change (%, negative = inhibition) at 1uM” value is reported as -1.57%.
In the case of `CCN(Cc1ccccc1)S(=O)(=O)c1c(C)n(C)c(=O)n(C)c1=O`, the “hERG current change (%, negative = inhibition) at 1uM” value is reported as 1.45%.
For `C=CCN(c1ccc(C(=O)Nc2ccc3c(c2)n(C)c(=O)n3C)cc1)S(C)(=O)=O`, the “hERG current change (%, negative = inhibition) at 1uM” value was 17.2%.
With `Cc1ccc(S(=O)(=O)N2CCCC2)cc1C(=O)O` the “hERG current change (%, negative = inhibition) at 1uM” value was 20.5%.
In the case of `CCCOC(=O)c1ccc(NC(=O)C2C3C=CC(O3)C2C(=O)O)cc1` (stereo not shown), the “hERG current change (%, negative = inhibition) at 1uM” value is reported as 14.5%.
With `CCn1c(CNc2ccc(C)cc2C)nnc1SCC(=O)N1CCCc2ccccc21` the “hERG current change (%, negative = inhibition) at 1uM” value was 8%.
`Cc1ccc(S(=O)(=O)c2ncccc2N)cc1` was tested, and the “hERG current change (%, negative = inhibition) at 1uM” value was 9.71%.
For `CC(=O)N1CCN(CC(=O)O)CC1`, the “hERG current change (%, negative = inhibition) at 1uM” value was 5.59%.
With `Cc1cc(C(F)F)n2ncc(C(=O)N3CCC(C(N)=O)CC3)c2n1` the “hERG current change (%, negative = inhibition) at 1uM” value was 13.6%.
In the case of `Cc1ccc2c(cnn2C(=O)CCC(=O)NCc2cccc(Br)c2)c1`, the “hERG current change (%, negative = inhibition) at 1uM” value is reported as 11.1%.
`Cc1cc(C(=O)CCC(=O)NCc2ccccc2F)c(C)s1` was tested, and the “hERG current change (%, negative = inhibition) at 1uM” value was 15%.
With `COc1cccc(CNC(=O)CSc2nnc3c(n2)[nH]c2ccc(OC)cc23)c1` the “hERG current change (%, negative = inhibition) at 1uM” value was 11.6%.
In the case of `COc1ccccc1NC(=O)CSc1nc(O)cc(=O)n1C`, the “hERG current change (%, negative = inhibition) at 1uM” value is reported as 15.3%.
With `Cc1cc(C)n2nnnc2c1C#N` the “hERG current change (%, negative = inhibition) at 1uM” value was 10.6%.
For `CCOC(=O)c1cccc(NC(=O)c2ccco2)c1`, the “hERG current change (%, negative = inhibition) at 1uM” value was 7.16%.
`COC(=O)c1cccnc1NC(=S)NC1CCCCC1` was tested, and the “hERG current change (%, negative = inhibition) at 1uM” value was 7.35%.
In the case of `COC(=O)c1sccc1-c1ccc(C(=O)Nc2ccccc2)o1`, the “hERG current change (%, negative = inhibition) at 1uM” value is reported as -9%.
`COc1ccc(C(=O)NC2CCCc3c2cnn3-c2cccc(C)c2C)c(OC)n1` (stereo not shown) was tested, and the “hERG current change (%, negative = inhibition) at 1uM” value was 12.5%.
`COc1ccc(/C(CC2OC(=O)c3ccccc32)=N\NC(N)=O)cc1` (stereo not shown) was tested, and the “hERG current change (%, negative = inhibition) at 1uM” value was 2.7%.
In the case of `CCOC(=O)N1CCN(S(=O)(=O)N2CCCC(C(=O)NCc3cccc(OC)c3)C2)CC1` (stereo not shown), the “hERG current change (%, negative = inhibition) at 1uM” value is reported as 7.2%.
`Cc1ccccc1/C=N/Nc1ccc(Cl)nn1` was tested, and the “hERG current change (%, negative = inhibition) at 1uM” value was 13.8%.
With `O=[N+]([O-])c1ccc(C2[C@H]3C(c4ccccc4)=NC4(CCCCC4)N23)cc1` (stereo partly shown) the “hERG current change (%, negative = inhibition) at 1uM” value was 16.7%.
`NS(=O)(=O)c1ccc(CCNC(=S)Nc2ccccc2)cc1` was tested, and the “hERG current change (%, negative = inhibition) at 1uM” value was 7.72%.
In the case of `Fc1ccccc1-c1nnc2c3ccccc3nc(N3CCOCC3)n12`, the “hERG current change (%, negative = inhibition) at 1uM” value is reported as -3.41%.
For `CCOC(=O)C(=CNc1cc(C)ccc1[N+](=O)[O-])C(=O)OCC`, the “hERG current change (%, negative = inhibition) at 1uM” value was -7.24%.
For `O=C(Cn1c(=O)[nH]c2ccccc2c1=O)Nc1ccc2c(c1)OCO2`, the “hERG current change (%, negative = inhibition) at 1uM” value was 9.69%.
`COc1ccc(S(=O)(=O)N(C)CC(=O)N2CCN(c3ccc(F)cc3)CC2)cc1OC` was tested, and the “hERG current change (%, negative = inhibition) at 1uM” value was -16.3%.
For `CCN(CC)CCN1C(=O)c2oc3ccccc3c(=O)c2C1c1ccccc1` (stereo not shown), the “hERG current change (%, negative = inhibition) at 1uM” value was 2.78%.
`COc1ccc(Nc2nc3cc(C)ccc3cc2C#N)cc1` was tested, and the “hERG current change (%, negative = inhibition) at 1uM” value was -7.91%.
`COc1ccccc1OCCC(=O)OCC(=O)NCc1ccccc1` was tested, and the “hERG current change (%, negative = inhibition) at 1uM” value was 9.77%.
In the case of `CCOc1cc(C=O)cc(Br)c1OCC(N)=O`, the “hERG current change (%, negative = inhibition) at 1uM” value is reported as 11.6%.
For `O=C(c1ccco1)N1CCN(CC(O)COc2ccc(Br)cc2)CC1` (stereo not shown), the “hERG current change (%, negative = inhibition) at 1uM” value was -42.7%.
For `CCOc1ccc(-c2nc[nH]c2[N+](=O)[O-])cc1`, the “hERG current change (%, negative = inhibition) at 1uM” value was 21.9%.
With `CCCCc1nc(Cl)c(CO)n1Cc1ccc(-c2ccccc2-c2nn[n-]n2)cc1.[K+]` the “hERG current change (%, negative = inhibition) at 1uM” value was 6.14%.
With `CCOCCCNc1nc2c(C)cccn2c(=O)c1/C=C1\SC(=S)N(CC(C)C)C1=O` the “hERG current change (%, negative = inhibition) at 1uM” value was 17.6%.
`CCOc1ccc(CCNC(=O)c2ccc3nc(CC)c(CC)nc3c2)cc1` was tested, and the “hERG current change (%, negative = inhibition) at 1uM” value was 10.9%.
In the case of `CCOC(=O)CSc1nnc(Cn2nnc(-c3ccccc3)n2)n1CC`, the “hERG current change (%, negative = inhibition) at 1uM” value is reported as -2.87%.
With `CCOC(=O)c1c(NC(=O)CSc2nc3ccccc3o2)sc(C)c1C` the “hERG current change (%, negative = inhibition) at 1uM” value was 17.6%.
With `C=CCOc1cccc(C(=O)N2CCC(CCC(=O)NC3CC3)CC2)c1` the “hERG current change (%, negative = inhibition) at 1uM” value was 12.6%.
In the case of `CC(C)c1ccc(CNC(=O)C(=O)Nc2nccs2)cc1`, the “hERG current change (%, negative = inhibition) at 1uM” value is reported as 19.3%.
For `Cc1ccc(S(=O)(=O)CCc2nc3ccccc3[nH]2)cc1C`, the “hERG current change (%, negative = inhibition) at 1uM” value was 6.31%.
For `COc1ccccc1CNC(=O)COC(=O)[C@H](Cc1c[nH]c2ccccc12)NC(=O)c1cccs1`, the “hERG current change (%, negative = inhibition) at 1uM” value was 7.77%.
`COc1ccc(NC(=O)CSc2nc3ccc(OC)cc3[nH]2)cc1` was tested, and the “hERG current change (%, negative = inhibition) at 1uM” value was 1.09%.
For `COc1ccccc1-c1sc2ccccc2c1-c1ccc2c(c1)OCCO2`, the “hERG current change (%, negative = inhibition) at 1uM” value was 7.93%.
With `CCOC(=O)C(CCOc1cccc(CC)c1)C(=O)OCC` the “hERG current change (%, negative = inhibition) at 1uM” value was 13.6%.
In the case of `CCOC(=O)C1(CCCc2ccccc2)CCN(C(=O)Cn2nc(C)nc2C)CC1`, the “hERG current change (%, negative = inhibition) at 1uM” value is reported as -3.12%.
With `CCCc1nc2ccc(NC(C)=O)cc2c(=O)n1Cc1ccccc1Cl` the “hERG current change (%, negative = inhibition) at 1uM” value was -2.32%.
`COc1ccc(CNc2ccc(S(=O)(=O)N3CCN(C)CC3)cn2)cc1OC` was tested, and the “hERG current change (%, negative = inhibition) at 1uM” value was 7.33%.
In the case of `Cn1cc(SCC(=O)N2CCCc3ccccc32)c2ccccc21`, the “hERG current change (%, negative = inhibition) at 1uM” value is reported as 9.83%.
For `CC1(C(=O)NCc2ccccn2)C=CCN1C(=O)c1ccccc1` (stereo not shown), the “hERG current change (%, negative = inhibition) at 1uM” value was 13.3%.
`CCN1C(=O)c2ccccc2S(=O)c2ccc(C(=O)N3CCN(C(=O)c4ccco4)CC3)cc21` (stereo not shown) was tested, and the “hERG current change (%, negative = inhibition) at 1uM” value was 1.12%.
`O=C(Oc1ccc(-c2nccc(-c3ccccn3)n2)cc1)c1cccc(C(F)(F)F)c1` was tested, and the “hERG current change (%, negative = inhibition) at 1uM” value was 5.53%.
